Laboratory results taken from article PMC4336329 (PLoS ONE, 2015).
In all, about 310,000 compounds went through this assay and about 14,000 (4.5%) showed an effect of 50% or more. The effect is printed as a negative number. Some of the results follow.

The compounds below were run against human ether-à-go-go-related gene (hERG) potassium channel (human, UniProt Q12809) (assay: primary screen, population patch clamp on CHO cells stably expressing hERG).
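Note: peak tail current of the secondary pulse compared with the same well before compound.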

human ether-à-go-go-related gene (hERG) potassium channel, sequence (Q12809 whole entry, looked up): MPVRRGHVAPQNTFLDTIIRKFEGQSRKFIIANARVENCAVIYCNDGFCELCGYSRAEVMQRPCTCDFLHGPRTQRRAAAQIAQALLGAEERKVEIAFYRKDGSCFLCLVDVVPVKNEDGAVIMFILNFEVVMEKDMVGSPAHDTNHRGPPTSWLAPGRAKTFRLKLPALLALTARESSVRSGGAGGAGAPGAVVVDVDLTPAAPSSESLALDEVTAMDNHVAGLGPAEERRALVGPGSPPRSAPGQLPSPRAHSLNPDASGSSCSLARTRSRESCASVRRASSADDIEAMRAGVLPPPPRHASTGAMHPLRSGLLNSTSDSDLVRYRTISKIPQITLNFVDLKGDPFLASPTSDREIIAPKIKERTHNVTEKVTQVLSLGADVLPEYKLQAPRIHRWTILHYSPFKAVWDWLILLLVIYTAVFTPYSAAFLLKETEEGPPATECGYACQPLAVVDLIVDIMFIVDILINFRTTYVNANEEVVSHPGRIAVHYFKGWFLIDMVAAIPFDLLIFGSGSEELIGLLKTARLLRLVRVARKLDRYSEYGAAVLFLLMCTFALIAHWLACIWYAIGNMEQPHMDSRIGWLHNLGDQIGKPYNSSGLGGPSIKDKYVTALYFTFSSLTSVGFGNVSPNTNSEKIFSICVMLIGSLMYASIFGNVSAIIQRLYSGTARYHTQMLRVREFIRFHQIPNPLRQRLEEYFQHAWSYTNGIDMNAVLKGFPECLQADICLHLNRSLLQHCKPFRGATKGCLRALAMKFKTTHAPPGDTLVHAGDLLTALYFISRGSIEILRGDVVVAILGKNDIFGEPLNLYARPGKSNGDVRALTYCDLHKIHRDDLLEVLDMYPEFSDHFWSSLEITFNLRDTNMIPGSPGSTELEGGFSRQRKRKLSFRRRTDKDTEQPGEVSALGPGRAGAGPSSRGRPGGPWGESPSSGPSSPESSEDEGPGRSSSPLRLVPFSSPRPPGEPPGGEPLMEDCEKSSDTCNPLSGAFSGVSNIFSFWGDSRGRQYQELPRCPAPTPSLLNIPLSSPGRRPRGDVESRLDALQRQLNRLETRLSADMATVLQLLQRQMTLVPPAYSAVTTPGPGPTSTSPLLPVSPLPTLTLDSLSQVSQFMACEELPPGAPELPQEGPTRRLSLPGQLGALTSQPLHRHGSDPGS

Row | Compound | hERG current change (%, negative = inhibition) at 10uM [%]
1 | O=C(NCc1ccncc1)c1ccc(OCc2ccccc2)cc1 | -32
2 | Cc1cccc(C(C)C)c1NC(=O)c1ccc(CN(c2ccccc2)S(=O)(=O)c2ccccc2)cc1 | 7.12
3 | O=C(CSc1nncn1-c1ccccc1)NC1CCCC1 | -8.09
4 | Cc1cccc(C)c1Nc1c(-c2ccsc2)nc2ncccn12 | -16.2
5 | Cc1ccc(S(=O)(=O)N(C(=O)c2ccco2)c2cc3sc(=O)oc3c3ccccc23)cc1 | 8.16
6 | CCOC(=O)[C@H]1[C@H]2COc3ccc(C)cc3[C@@H]2N2C(=O)c3ccc(F)cc3NC(=O)[C@@]12C | -22.8
7 | O=C(Nc1cccc(F)c1)c1ccc(S(=O)(=O)N2CCCC2)cc1 | -23.5
8 | CC(NC(=O)c1cc(=O)[nH]c2ccccc12)c1ccc(F)cc1F (centres unmarked) | 18.9
9 | Cc1noc(C)c1S(=O)(=O)Nc1ccc(C(=O)N2CCN(c3ccc(F)cc3)CC2)cc1 | 6.88
10 | CNS(=O)(=O)c1ccc(CCC(=O)N2CCN(c3ccccc3OC)CC2)cc1 | -5.03
11 | Cn1c(=O)[nH]c(=O)c2cc(C(=O)c3cc(F)ccc3O)cnc21 | 8.74
12 | COc1ccccc1CCNC(=O)c1ccc(NC(=O)CC2SC(N3CCCC3)=NC2=O)cc1 (centres unmarked) | 13.8
13 | COc1ccc(C2C(C(C)=O)=C(O)C(=O)N2c2cccnc2)c(OC)c1 (centres unmarked) | 4.39
14 | O=C(Cc1ccccc1)Nc1c(C(=O)N2CCCCCC2)cnn1-c1ccccc1 | 12.7
15 | C=CCNc1cccc(Br)c1 | 6.85
16 | CCOC(=O)c1nn(-c2ccc(OCC)cc2)c2nc(CC(C)C)c(C#N)c(=O)n12 | 1.4
17 | Fc1ccccc1Nc1nc(NCc2ccco2)nc(N2CCOCC2)n1 | -15.8
18 | Cc1cccnc1NC1CCCCC1 | 26.3
19 | O=C(O)c1ccc(N2C(=O)CC(N3CCN(c4ccc(Cl)cc4)CC3)C2=O)cc1 (centres unmarked) | 6.79
20 | CCc1ccc(Nc2n[n+](-c3ccccc3)c(-c3ccc(OCc4ccccc4)cc3)s2)cc1.[Cl-] | -45.2
21 | Cc1ccc2cc(C)c3nnc(SCC(=O)N4CCCc5ccccc54)n3c2c1C | -22.5
22 | CC(C)CC(=O)Nc1ccc(C(=O)COC(=O)C2CCC2)cc1 | 16.5

Row | Compound | hERG current change (%, negative = inhibition) at 10uM [%]
23 | Cc1cnc(NC(=O)CSc2nc3ccccc3s2)s1 | -19.3
24 | O=C(CCl)c1cc2c3c(c1)CC(=O)N3CCC2 | 8.17
25 | Cc1cc(=O)n2[nH]c(SCc3ccccc3Cl)nc2n1 | 13
26 | COC(=O)C1=C(c2ccc(C(C)=O)cc2)C[C@@H]2CC[C@H]1N2C(=O)NC1Cc2ccccc2C1 | -47.7
27 | CCCOC(=O)c1ccc(NC(=O)Oc2ccccc2)cc1 | 3.21
28 | CCOC(=O)C1=C(CC)Nc2ccccc2N=C1NC(=O)c1ccc(S(=O)(=O)N2CCOCC2)cc1 | -23.7
29 | COc1ccc(C(NC(=O)C2CCCCC2)c2c(O)ccc3ccccc23)cc1 (centres unmarked) | 6.08
30 | O=C(/C=C/c1cccs1)NCc1ccc2c(c1)OCO2 | -12.9
31 | O=C(/C=C/c1ccccc1[N+](=O)[O-])OC1CCCCC1=O (centres unmarked) | 16.3
32 | COc1cccc(NC(=O)CN(C)C(=O)c2cc3c(s2)CCC(C)C3)c1 (centres unmarked) | 3.28
33 | Cc1[nH]c(C)c(S(=O)(=O)N2CCCCC2C)c1C(=O)N1CCCC1 (centres unmarked) | 17
34 | Cc1ccc(-c2nnc(NC(=O)CCS(=O)(=O)c3ccc(F)cc3)o2)c(C)c1 | 0.358
35 | COc1ccc(N(CC(=O)NC2CCCC2)C(=O)Cn2nnc(-c3ccc(C)cc3)n2)cc1 | -27.8
36 | COc1ccc(CCNC(=O)c2ccc3nc[nH]c3c2)cc1 | 24.7
37 | O=C(NCCc1csc(-c2cccnc2)n1)c1cccs1 | -5.91
38 | CCSC(C)CC1C/C(=N/O)c2c(CC)noc2C1 (centres unmarked) | -24.2
39 | COc1cc(CNc2ncnc3c2[nH]c2ccc(C)cc23)cc(OC)c1 | 8.03
40 | OCC[C@H]1C[C@@H](O)[C@H](O)[C@]2(CCCc3ccccc3O2)O1 | 10.8
41 | CC(=O)N1c2ccc(S(=O)(=O)N3CCC(C(=O)Nc4cccc(C)c4)CC3)cc2CC1C (centres unmarked) | 8.18
42 | CCc1ccc(N(C(=O)c2csnn2)C(C(=O)NC(C)(C)C)c2cccnc2)cc1 (centres unmarked) | 4.59
43 | COc1ccc(CNC(=O)COC(=O)CCCOc2ccc(Cl)cc2Cl)cc1 | 8.91
44 | CC(C)C(NS(=O)(=O)c1cc(C(=O)O)ccc1Cl)C(=O)O (centres unmarked) | 3.34

Row | Compound | hERG current change (%, negative = inhibition) at 10uM [%]
45 | Cc1ccc(OCC(=O)NCCN2CCCC2)cc1.Cl | 2.48
46 | CCOC(=O)/C(C#N)=C/c1c(N2CCN(Cc3ccc4c(c3)OCO4)CC2)nc2c(C)cccn2c1=O | -2.37
47 | Clc1ccc(OCCn2ccnc2)cc1Cl.O=C(O)C(=O)O | 9.38
48 | CC(N=c1ccccn1C(=O)Nc1ccc(F)cc1)c1ccco1 (centres unmarked) | 5.95
49 | COc1cccc(C(O)c2nc3ccccc3n2C(C)C)c1 (centres unmarked) | 3.4
50 | O=C(CSc1nnc2ccc(-c3cccnc3)nn12)Nc1ccccc1 | -50.6
51 | CCNC(=O)c1ccc(C23CC4CC(CC(C4)C2)C3)o1 | 12.9
52 | CC1=C(C(=O)OC(C)C)C(c2cn(-c3ccccc3)nc2-c2cccs2)NC(=O)N1 (centres unmarked) | 2.13
53 | Cc1ccc(O)c(-c2cc(-c3ccccc3[N+](=O)[O-])[nH]n2)c1 | -6.48
54 | O=C(O)c1cccc(-n2c(/C=C/c3ccc([N+](=O)[O-])cc3)nc3ccccc3c2=O)c1 | 1.6
55 | CCc1cccc(CC)c1NC(=O)COC(=O)CCc1cc(OC)c(OC)c(OC)c1 | -14.7
56 | O=C(O)/C=C(\Oc1ccccc1)C1(O)CCCCC1 | 8.23
57 | CCOC(=O)C1=C(COC(=O)/C=C/c2ccc(OC)c(OC)c2)NC(=O)NC1C (centres unmarked) | 1.35
58 | CCN(Cc1cnn(C)c1)C(=O)CC1C(=O)NCCN1Cc1cccc(OC)c1OC (centres unmarked) | -5.68
59 | CCc1ccc(C(=O)C(C)OC(=O)C2COc3ccccc3O2)cc1 (centres unmarked) | -18.9
60 | Cc1ccc(-n2c(=S)[nH]c3nc4c(cc3c2=O)COC(C)(C)C4)cc1 | 9.68
61 | Cc1cc(C)cc(NC(=O)C2CCCN(c3nccc(C)n3)C2)c1 (centres unmarked) | -14.4
62 | CCN(CC)C(=O)c1sc(N)c(C(=O)OC(C)C)c1C | 3.27
63 | COC(=O)c1cc2c(s1)=NC=NP=2(N1CCOCC1)N1CCOCC1 | 13.1
64 | CN(CC(=O)Nc1ccccc1Cl)C(=O)COC(=O)c1ccc(S(=O)(=O)C(F)F)cc1 | -69.9
65 | COc1ccc(CC(=O)Nc2cccc3c2CCCC3)cc1 | 14.9
66 | CCCOc1ccc(S(=O)(=O)NCCCN2CCOCC2)c2ccccc12 | -19

Row | Compound | hERG current change (%, negative = inhibition) at 10uM [%]
67 | CC(C)C[C@H](NC(=O)c1nc[nH]c1C(=O)NCC(=O)OCc1ccccc1)C(=O)OCc1ccccc1 | 14.9
68 | CCCOc1cccc(C(=O)Nc2nnn(CCC)n2)c1 | -7.44
69 | O=c1c2ccccc2oc2cc(OCc3cccc(F)c3)cc(O)c12 | 18.8
70 | Cc1ccc(C2CC(C(F)(F)F)n3ncc(C(=O)NCc4ccco4)c3N2)cc1 (centres unmarked) | -7.43
71 | CC(Oc1ccccc1Cl)c1nnc(N)s1 (centres unmarked) | -2.34
72 | CC1(C)OC1COc1c2ccoc2cc2oc(=O)ccc12 (centres unmarked) | -11.4
73 | O=C1N(Cc2ccccc2F)c2ccccc2C12OCCCO2 | 10.9
74 | CCc1cc(Cl)c(OC)c(C(=O)NC[C@@H]2CCCN2CC)c1O.Cl | -59.2
75 | CC1(C)Cc2c(c(-c3ccco3)[nH]c(=O)c2C#N)CS1 | -5.06
76 | CCN(CC)S(=O)(=O)c1ccc(N2CCN(c3ccccc3O)CC2)nc1 | -52.8
77 | O=S(=O)(c1ccccc1)N1CCN(c2nc3ccccc3s2)CC1 | 3.57
78 | Nc1nc(SCC(=O)c2c(N)n(Cc3ccccc3)c(=O)[nH]c2=O)n[nH]1 | -2.1
79 | CCC(C)(C)NC(=O)C(c1ccc(OC)cc1)N(C(=O)CCC(=O)Nc1cc(C)on1)c1cccc(F)c1 (centres unmarked) | 3.48
80 | O=C(COc1ccccc1)NC(=S)N1CCc2ccccc21 | 17.8
81 | COc1ccc(N2C(=O)c3ccccc3NC23CCCCC3)cc1 | 6.26
82 | Cc1ccc(C(=O)N/C(=C/c2cccc([N+](=O)[O-])c2)C(=O)NC(C)C)cc1 | -51.8
83 | CCOc1ccc(N(CC)C(=O)c2cn(CC)c(=O)c3cc(OC)c(OC)cc23)cc1 | 9.71
84 | C#CCSc1nnc(CSc2nc3ccccc3s2)n1-c1ccccc1 | -3.87
85 | CC1CCCCN1C(=O)c1cc(S(=O)(=O)N2CCCCC2)c[nH]1 (centres unmarked) | 21
86 | O=C(c1cc2ccccc2o1)N1CCN(c2cccc(C(F)(F)F)c2)CC1 | 3.21
